Data published in US20230031280A1, “GLP-2 FUSION POLYPEPTIDES AND USES FOR TREATING AND PREVENTING GASTROINTESTINAL CONDITIONS” (SHIRE-NPS PHARMACEUTICALS, INC., priority 2017, published 2023).

Key:
human GLP-2R = biological target: T1, human GLP-2R (Homo sapiens, UniProt O95838); test: cAMP Hunter eXpress GLP2R CHO-K1 GPCR assay; format: cell-based; details: of the in vitro activity of GLP-2[A2G]
T1 construct: host or cells: CHO-K1
T1 sequence (O95838 1-553): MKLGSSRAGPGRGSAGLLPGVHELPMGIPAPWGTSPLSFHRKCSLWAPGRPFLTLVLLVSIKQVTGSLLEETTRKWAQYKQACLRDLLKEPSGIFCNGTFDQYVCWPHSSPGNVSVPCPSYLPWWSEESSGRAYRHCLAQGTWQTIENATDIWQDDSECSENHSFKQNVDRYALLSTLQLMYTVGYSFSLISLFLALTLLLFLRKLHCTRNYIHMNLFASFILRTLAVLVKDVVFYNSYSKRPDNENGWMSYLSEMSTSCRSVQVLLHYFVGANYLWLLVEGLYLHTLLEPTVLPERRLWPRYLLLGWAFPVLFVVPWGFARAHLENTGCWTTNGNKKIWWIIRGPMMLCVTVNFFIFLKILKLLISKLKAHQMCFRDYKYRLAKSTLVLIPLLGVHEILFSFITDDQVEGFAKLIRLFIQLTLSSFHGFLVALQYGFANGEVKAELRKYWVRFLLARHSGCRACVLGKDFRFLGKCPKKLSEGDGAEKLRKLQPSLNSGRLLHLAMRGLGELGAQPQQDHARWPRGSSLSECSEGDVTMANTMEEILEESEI
Protocol: The cAMP Hunter™ assay is based on enzyme fragment complementation (EFC). In EFC assay, the enzyme donor is fused to cAMP. Increased intracellular cAMP due to GLP2R activation competes with ED-cAMP for antibody. Unbound ED-cAMP complements the enzyme acceptor to form active beta galactosidase, which subsequently produces a luminescent signal.
The CHO-K1 cell line used is overexpressing human GLP-2R (Genbank accession number NM004246.1). […] Their activities were assayed via measurement of the concentration of cAMP in the media.

[1] = Rat pharmacokinetics, intravenous dosing; format: in vivo, Sprague-Dawley rats; details: single dose 1 mg/ml
Protocol: (§1) In the rat, four pharmacokinetic parameters were measured for Gattex® (a GLP-2 peptide having the A2G mutation): CL, Vc, Vt and Q. The same pharmacokinetic parameters were also measured for GLP-2 peptibodies A, B, E, J, K, L, M, O and P. The data is shown in Table 4. Male Sprague-Dawley rats (3 animals per group) were injected intravenously either via a jugular vein or tail vein catheter. A singles dose of test article was injected at a dose level of 1 mg/ml. The test articles were formulated in PBS pH 7.4 at a concentration of Blood samples were taken 0.083, 0.167, 0.33, 0.5, 1, 2, 6, 24, 48, 72, 120, 168, 240, and 336 hours post dose. Blood samples were collected into heparinized tubes and centrifuged for 5 minutes at 2000 xg within 10 minutes of collection. 100 μL of plasma were transferred to a 1.5 ml Eppendorf tube containing 2 μL of 50 mM PMSF. After mixing, the plasma samples were frozen at −80° C. until analysis.

[2] = NanoDSF melting temperature / thermal stability; format: physicochemical; details: for NanoDSF melting temperature 1: first transition; for NanoDSF melting temperature 2: second transition
Protocol: Each of the GLP-2 peptibodies was tested by determining melting temperature with nanodifferential scanning fluorimetry (NanoDSF). NanoDSF is a measurement of protein stability over a range of temperatures, with a temperature ramp employed. The stability of tryptophan is measured by fluorescence, as reflected in a ratio of fluorescence at 350 nm to fluorescence at 330 nm. From the assay, one or more melting temperatures are determined. Because a protein in a certain state is understood to have a melting temperature, the number of melting temperatures observed reflects the number of different states.
(§2) Stability analysis was then performed using SEC-MALS and NanoDSF. For SEC-MALS, a Sepax Zenix C-150 column was used. The mobile phase buffer was 1× PBS with a final concentration of 400 mM NaCl. The flow rate was 0.8 mL per minute. 20 micrograms of total protein was injected. For NanoDSF, 10 microliters of sample was used, without normalization of the samples.
as §2

[3] = Rat pharmacokinetics, subcutaneous dosing; format: in vivo, Sprague-Dawley rats; details: single dose 1 mg/ml
Protocol: as §1, with “5.” for “4.”, “subcutaneously into the intra-scapular region of the animal.” for “intravenously either via a jugular vein or tail vein catheter.”, “[…]” for “1.5”, “mixing” for “mixing,”, “analysis. Meso Scale Discovery (MSD) ELISA was undertaken to assay for the concentration of the GLP-2 peptibodies.” for “analysis.”
A sandwich immunoassay was developed using either an anti-Human IgG1 Fc antibody or an anti-human albumin antibody for capture of the peptibody and a sulfotag labeled anti GLP-2 antibody for detection.

[4] = SEC-MALS (Sepax Zenix C-150) peak distribution; format: physicochemical
Protocol: A SEC-MALS assay was performed to determine the primary state (main peak) and its molecular weight. […] The GLP-2 peptibody O (albumin fusion) eluted at a molecular weight indicative of a monomer.
as §2, §2

B1: GLP-2 peptibody E: GLP-2[A2G]-linker-IgG1 Fc (LALA); SEQ ID NO: 16 (protein, listed as Homo sapiens)
chain: HGDGSFSDEMNTILDNLAARDFINWLIQTKITDGGGGGGSGGGGSGGGGS[letters of human IgG1 Fc with changes left out]
Question: Which “in vitro activity relative to GLP-2[A2G]” value (human GLP-2R) does the source give for B1 here?
Answer: 24% and 18%

Question: What about the CL [1] of the same molecule?
Answer: 3 mL/h/kg

Question: What about the Q [1] of the same molecule?
Answer: 2.87 mL/h/kg

Question: What about the Vc [1] of the same molecule?
Answer: 0.021 L/kg

Question: What about the Vt [1] of the same molecule?
Answer: 0.041 L/kg

Question: What about the “NanoDSF melting temperature 1” value [2] of the same molecule?
Answer: 1 = 67.5 °C

Question: What about the “NanoDSF melting temperature 2” value [2] of the same molecule?
Answer: 2 = 80 °C

Question: What about the CL [3] of the same molecule?
Answer: 5.04 mL/h/kg

Question: What about the Vc [3] of the same molecule?
Answer: 0.205 L/kg

Question: What about the ka [3] of the same molecule?
Answer: E (0.63 ka/day,

B2: GLP-2 peptibody J: GLP-2[A2G]-long GAP/Gly/Ala linker-IgG1 Fc (LALA); SEQ ID NO: 19 (protein, listed as Homo sapiens)
chain: HGDGSFSDEMNTILDNLAARDFINWLIQTKITDGAPGGGGGAAAAAGGGGGGAPGGGGGAAAAAGGGGGGAPGGGGGAAAAAGGGGGGAP[letters of human IgG1 Fc with changes left out]
Question: What does the source list for B2?
Answer: SEC-MALS Zenix C-150 main peak [4]: 98% main peak, 168,400 g/mol; CL [1]: 2.41 mL/h/kg; Q [1]: 0.65 mL/h/kg; Vc [1]: 0.0376 L/kg; Vt [1]: 0.022 L/kg; NanoDSF melting temperature 1 [2]: 1 = 68.1 °C; NanoDSF melting temperature 2 [2]: 2 = 82.0 °C; CL [3]: 8.12 mL/h/kg; Q [3]: 0.012 mL/h/kg; Vc [3]: 0.193 L/kg; Vt [3]: 0.0995 L/kg; ka [3]: J (0.93 ka/day,

“And” between values parts separate entries of the source, which are not always exact repeats. Identical values can stand only once.
